Among all 140,000 compounds or so, about 240 (0.17%) were called active. This list was built around the results that the source calls inconclusive (neither active nor inactive); the mix of calls is not that of the screen. Calls follow the shape of the dose curve; as a rule, active = well fitted inhibition curve with a large enough effect; inconclusive = small, poorly fitted or top-dose-only effect; inactive = no such curve, though single readings can be large or run the other way. Potencies of inconclusive entries are doubtful fits and often do not repeat.
test: Primary qHTS assay for inhibitors of alpha-synuclein gene (SNCA) expression; conditions: HEK-293 SNCA-luciferase knock-in, luminescence, 24 h; activity change, negative = inhibition: at 57.2 µM (top of the series) unless noted; also: nearly all actives have a fitted effect of over 45% in size;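 as to activity change, negative = inhibition: plate controls were DMSO cells for no effect and cell-free wells for full effect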
Potency is read from the fitted curve at half-maximal effect; tags tell the direction and shape of the fitted curve.

| SMILES | activity change, negative = inhibition | Potency |
| --- | --- | --- |
| Cc1ccc(-c2nnc(SCc3cccc(C#N)c3)o2)cc1 | inactive: 13.9% |  |
| CC(=O)N1CCc2c(sc3c2c(=O)n(CCc2ccccc2)c(=O)n3Cc2ccc(Cl)cc2)C1 |  | inconclusive: 39.8 µM [inhibitor, single point] |
| CCC(C)C(=O)Nc1c(C(=O)OC)n(CC2CCCO2)c2ncc(NC(C)CCO)cc12 (stereo not drawn) | inactive: -12.4% |  |
| O=[S+]([O-])(c1ccncc1)c1nnn2c1nc(NC1CC1)c1ccccc12 |  | inconclusive: 10 µM [inhibitor, partial curve, poor fit] |
| CCSc1ncc(Cl)c(C(=O)Nc2ccc(S(=O)(=O)N3CCCCC3)cc2)n1 |  | inconclusive: 39.8 µM [inhibitor, single point] |
| CCN(Cc1ccccc1)C(=O)CN(c1ccc(OC)cc1)S(=O)(=O)c1c(C)nn(C)c1C |  | inconclusive: 12.6 µM [inhibitor, partial curve, poor fit] |
| COc1ccccc1CN1Cc2[nH]cnc2C[C@H]1c1nc(-c2cccc(C)c2)no1 |  | inconclusive: 56.2 µM [inhibitor, single point] |
| CCN1CCC2(CCC1=O)CN(C(=O)c1ccc(CSC)o1)CCN2C (stereo not drawn) |  | inconclusive: 39.8 µM [inhibitor, single point] |
| O=C(c1cc2n(n1)CC(c1ccc3c(c1)OCO3)OC2)N1CCCCC1 (stereo not drawn) | inactive: -18.2% |  |
| CC(C)c1ccc(S(=O)(=O)c2nnn3c2nc(N2CCCCC2)c2sccc23)cc1 |  | inconclusive: 39.8 µM [inhibitor, single point] |
| COc1ccc(C(=O)N2CCN(C(=O)c3nnn4c3COC(c3ccccc3)C4)CC2)c(C)c1 (stereo not drawn) |  | inconclusive: 1.41 µM [inhibitor, full curve] |
| Cc1ccc(C)c(Cn2c(-c3cccs3)nc3ccccc32)c1 |  | inconclusive: 39.8 µM [inhibitor, single point] |
| COc1cccc(C(=O)Nc2ccc(-c3cc(C(F)(F)F)nn3-c3ccccc3)cc2)c1 |  | inconclusive: 39.8 µM [inhibitor, single point] |
| Cc1cnc(C(=O)N2CCC(C3CCN(S(C)(=O)=O)CC3)C2)cn1 (stereo not drawn) | inactive: 4.29% |  |
| COc1ccc(Nc2ccnc(N3CCC(NC(=O)c4ccccn4)CC3)n2)cc1 | inactive: 5.28% |  |
| Cc1c(Cl)cccc1NC(=O)Nc1cccc(-c2nnc3n2CCCC3)c1 | inactive: 11.2% |  |
| COc1cc2nccc(Oc3ccc(NC(=O)NC4CC4)c(Cl)c3)c2cc1C(N)=O |  | inconclusive: 15.2 µM [inhibitor, full curve, poor fit] |
| COc1ccccc1CC(=O)N1CCCc2ncc(C(=O)Nc3cccc(Cl)c3)cc21 | inactive: -7.05% [at 87.6 µM] |  |
| O=C1Cc2c(-c3ccc4ccccc4c3)n[nH]c2CN1CCc1ccncc1 | inactive: 10.4% [at 87.6 µM] |  |
| CC(C)Oc1cc(-c2ccc(C(C)N3CCOCC3)cc2)nc(N)n1 (stereo not drawn) | inactive: -1.25% |  |
| COCCCNC(=O)C(NC(=O)c1ccccc1C)C1CCN(C(=O)c2cccs2)CC1 (stereo not drawn) | inactive: 31.5% |  |
| O=C(NC1CCCCC1)c1ccc2nnc(-c3ccc(F)cc3)n2c1 | inactive: 33.3% |  |

| SMILES | activity change, negative = inhibition | Potency |
| --- | --- | --- |
| O=C(NC1CC1)c1ccc2ccnn2c1 | inactive: 59.1% [at 87.6 µM] |  |
| O=C1CC2(CCN(C(=O)C3CCCN(C(=O)c4ccc(C(F)(F)F)cc4)C3)CC2)Oc2ccccc2N1 (stereo not drawn) |  | inconclusive: 39.8 µM [inhibitor, single point] |
| CN(C)C[C@H]1O[C@H](Cc2cc(-c3cccc(O)c3)on2)CC[C@@H]1O | inactive: -25.2% [at 87.6 µM] |  |
| COc1ccccc1N1CCN(C(=O)Cn2cnc3onc(-c4ccc(F)cc4)c3c2=O)CC1 |  | inconclusive: 22.4 µM [inhibitor, single point] |
| COc1cc(-c2cc(OC)c3c(C)oc(C)c3c(=O)c2)ccc1OC(=O)c1ccccc1C |  | inconclusive: 22.4 µM [inhibitor, partial curve, poor fit] |
| O=C(CN1C(=O)C(c2ccc(F)cc2)=NC12CCCCCC2)Nc1ccc(F)c(Cl)c1 |  | inconclusive: 11.2 µM [inhibitor, partial curve, poor fit] |
| CCC(=O)NC1CC(=O)N(c2ccc3c(c2)OCCO3)C1 (stereo not drawn) |  | inconclusive: 7.08 µM [inhibitor, single point] |
| Cc1nn(-c2ccc(C(F)(F)F)cc2)c(C)c1[C@@H]1C=C[C@@H](NC(=O)c2cccs2)C1 | inactive: 15.6% [at 87.6 µM] |  |
| CN1CCN(C)c2cc(-c3ccc(N4CCOCC4)cc3)ncc2C1 | inactive: 27.6% [at 87.6 µM] |  |
| O=C(Nc1ccc2c(N3CCCCC3)ncnc2c1)c1ccc(F)c(F)c1 | inactive: -10.1% |  |
| O=C(COc1ccccc1)N1CC(c2noc(COc3ccccc3)n2)C1 |  | inconclusive: 39.8 µM [inhibitor, single point] |
| CC(C)C[C@@H]1N[C@H](C(=O)NCC2CC2)Cc2cn(Cc3nccn3C)c3cccc1c23 |  | inconclusive: 56.2 µM [inhibitor, single point] |
| O=c1[nH]nc2n1CCN(S(=O)(=O)c1ccc3c(c1)OCCO3)CC2 |  | inconclusive: 8.91 µM [inhibitor, single point] |
| COc1ccc(CCNC(=O)CCc2c(C)nc3c(c(C)nn3-c3ccc(C)cc3)c2C)c(OC)c1 |  | inconclusive: 39.8 µM [inhibitor, single point] |
| O=C(NC1CC1)[C@@H]1C[C@H](Oc2cccnc2)CN1C(=O)c1ccc2ncccc2c1 |  | inconclusive: 3.55 µM [inhibitor, full curve, poor fit] |
| COc1ccc(C2Cn3nnc(C(=O)N4CCN(C(=O)c5cccc(C)c5)CC4)c3CO2)cc1 (stereo not drawn) |  | inconclusive: 11.2 µM [inhibitor, partial curve, poor fit] |
| CC(C)(C)C1CCC2(CC1)NC(=O)N(CC(=O)Nc1ccccc1)C2=O (stereo not drawn) | inactive: 4.6% |  |
| CCN1c2cc(C(=O)Nc3cccc(C(C)C)c3)ccc2C(=O)N2CCCCCC21 (stereo not drawn) |  | inconclusive: 12.6 µM [inhibitor, partial curve, poor fit] |
| CC(=O)N1CCN(C(=O)[C@@H]2Cc3cn(Cc4cc(C)on4)c4cccc(c34)[C@H](CC(C)C)N2)CC1 | inactive: 13.1% |  |
| COc1ccc(Cl)cc1NC(=O)CN(c1cc(C)cc(C)c1)S(=O)(=O)c1c(C)n[nH]c1C |  | inconclusive: 25.1 µM [inhibitor, partial curve, poor fit] |
| CCc1ccc(NC(=O)c2cc3c(=O)n(Cc4cccs4)ccc3nc2C)cc1 |  | inconclusive: 17.8 µM [inhibitor, partial curve, poor fit] |
